Experimental data from the supplement of paper PMC9446081.
In all, about 39,000 compounds went through this assay and about 220 (0.56%) showed activity. The list shows a part of the results.

System: Escherichia coli K-12 BW25113
Assay: relative growth (OD600 normalised to plate interquartile mean) (fraction); higher = less growth inhibition, active = 0.2 or less
Details: 50 µM; LB; incubation time: overnight (16-24 h)
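Further: static incubation at 37 °C against the wild-type strain, values averaged over two biological replicates.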

Row | Structure (SMILES) | relative growth
1 | C[C@H]1CN([C@@H](C)CO)C(=O)Cc2cc(NS(=O)(=O)c3cccs3)ccc2O[C@H]1CN(C)S(=O)(=O)c1cn(C)cn1 | inactive: 1.01
2 | C[C@@H]1CN([C@@H](C)CO)C(=O)c2cc(NS(=O)(=O)c3cccs3)ccc2O[C@@H]1CN(C)CC1CC1 | inactive: 0.979
3 | C[C@@H]1CN([C@@H](C)CO)C(=O)c2cc(/C=C/c3ccccc3)cnc2O[C@@H]1CN(C)C(=O)c1cnccn1 | inactive: 1.01
4 | C[C@@H]1CN([C@@H](C)CO)C(=O)c2cc(C#Cc3ccc(F)cc3)cnc2O[C@@H]1CN(C)CC1CCOCC1 | inactive: 0.993
5 | Cc1ccc(S(=O)(=O)N(C)C[C@@H]2Oc3cc(C#Cc4ccccc4)ccc3S(=O)(=O)N([C@@H](C)CO)C[C@@H]2C)cc1 | inactive: 1.05
6 | C[C@@H]1CCCCO[C@@H](CN(C)Cc2ccc(Cl)c(Cl)c2)[C@H](C)CN([C@@H](C)CO)C(=O)c2cc(NS(=O)(=O)c3ccc(Cl)cc3)ccc2O1 | inactive: 1.02
7 | Cc1ccc(S(=O)(=O)N(C)C[C@H]2OCCCC[C@H](C)Oc3ccc(NC(=O)NC4CCCCC4)cc3C(=O)N([C@@H](C)CO)C[C@@H]2C)cc1 | inactive: 0.992
8 | CN1CCCN(C[C@@]2(O)CCNC2)CC1 | inactive: 1.03
9 | CC(C)[C@@H](C(=O)O)n1cnnn1 | inactive: 0.996
10 | Cc1cc(N)c2ccccc2[n+]1CCCCCCCCCC[n+]1c(C)cc(N)c2ccccc21.[Cl-].[Cl-] | inactive: 0.627
11 | N#Cc1cn(C2CCCCC2)c(=O)[nH]c1=O | inactive: 1.03
12 | COc1cccc(S(=O)(=O)Nc2ccc3c(c2)OC[C@H](C)N(C(=O)Cc2cccnc2)C[C@H](C)[C@@H](OC)CN(C)C3=O)c1 | inactive: 0.996
13 | C[C@H](CO)N1C[C@H](C)[C@H](CN(C)Cc2ccc(Oc3ccccc3)cc2)Oc2ccc(NC(=O)C3CCCCC3)cc2CC1=O | inactive: 1.01
14 | COc1ccc(CN(C)C[C@@H]2Oc3c(NC(=O)C4CCOCC4)cccc3C(=O)N([C@H](C)CO)C[C@H]2C)cc1 | inactive: 0.99
15 | C[C@@H]1CN([C@H](C)CO)C(=O)Cc2cc(NS(C)(=O)=O)ccc2O[C@H]1CN(C)C(=O)Nc1ccc2c(c1)OCO2 | inactive: 0.994
16 | Br.CN(C)CCCC1(c2ccc(F)cc2)OCc2cc(C#N)ccc21 (stereo unspecified) | inactive: 0.984
17 | C[C@@H]1CN([C@@H](C)CO)C(=O)Cc2cc(N(C)C)ccc2O[C@H]1CN(C)S(=O)(=O)c1cn(C)cn1 | inactive: 0.994
18 | C[C@@H]1CN([C@H](C)CO)C(=O)Cc2cc(NC(=O)Cn3cnnn3)ccc2O[C@@H]1CN(C)S(=O)(=O)c1ccc(Cl)cc1 | inactive: 1.01
19 | C[C@@H]1CCCCO[C@@H](CN(C)C(=O)C2CCCCC2)[C@H](C)CN([C@H](C)CO)C(=O)c2cc(NC(=O)CCC(F)(F)F)ccc2O1 | inactive: 0.989
20 | C[C@H]1CCCCO[C@H](CN(C)CC2CCCCC2)[C@@H](C)CN([C@@H](C)CO)C(=O)c2cc(NC(=O)NC3CCCCC3)ccc2O1 | inactive: 1
21 | C[C@H]1CN([C@@H](C)CO)S(=O)(=O)c2ccc(-c3ccc(F)cc3)cc2O[C@H]1CN(C)C(=O)C1CCOCC1 | inactive: 1

Row | Structure (SMILES) | relative growth
22 | S=c1[nH]nc(C2CCCCC2)[nH]1 | inactive: 0.902
23 | C[C@H]1CN([C@@H](C)CO)C(=O)c2cc(NS(=O)(=O)c3cccs3)ccc2O[C@@H]1CN(C)Cc1ccc(Oc2ccccc2)cc1 | inactive: 0.979
24 | COc1ccc(CN(C)C[C@@H]2OCCCC[C@H](C)Oc3ccc(NC(=O)Nc4ccc5c(c4)OCO5)cc3C(=O)N([C@@H](C)CO)C[C@@H]2C)cc1 | inactive: 0.982
25 | NC(=O)C1CCN(C(=O)c2ccco2)CC1 | inactive: 0.995
26 | C[C@@H]1CCCCO[C@@H](CN(C)Cc2ccc(Cl)c(Cl)c2)[C@@H](C)CN([C@H](C)CO)C(=O)c2cc(NC(=O)Nc3ccc4c(c3)OCO4)ccc2O1 | inactive: 1
27 | C[C@@H]1CN([C@H](C)CO)C(=O)c2cccc(NC(=O)Nc3ccc(C(F)(F)F)cc3)c2O[C@@H]1CN(C)C(=O)Nc1ccc(C(F)(F)F)cc1 | inactive: 0.974
28 | COc1cccc(NC(=O)N2C[C@@H](O)COC[C@@H]3O[C@@H](CC(=O)NCCCN4CCOCC4)CC[C@H]32)c1 | inactive: 0.883
29 | C[C@H]1CN([C@@H](C)CO)C(=O)Cc2cc(NS(=O)(=O)c3ccc(Cl)cc3)ccc2O[C@H]1CN(C)S(=O)(=O)c1cn(C)cn1 | inactive: 0.982
30 | Cc1noc(C)c1NC(=O)N(C)C[C@H]1Oc2ccc(NS(=O)(=O)c3c(C)noc3C)cc2CC(=O)N([C@H](C)CO)C[C@H]1C | inactive: 1
31 | Cc1noc(C)c1NC(=O)Nc1ccc2c(c1)C(=O)N([C@H](C)CO)C[C@H](C)[C@H](CN(C)C(=O)Nc1ccc3c(c1)OCO3)OCCCC[C@H](C)O2 | inactive: 1.01
32 | CC(C)(C)OC(=O)NCCOCCOCCOc1ccc(N(C(=O)CCl)[C@@H](C(=O)NCCc2ccccc2)c2cccs2)cc1Cl | inactive: 1.04
33 | O=C(CCCCC(=O)N/N=C/[C@H](O)[C@@H](O)[C@H](O[C@@H]1O[C@H](CO)[C@H](O)[C@H](O)[C@H]1O)[C@H](O)CO)NO | inactive: 1
34 | COc1ccc(CN(C)C[C@H]2Oc3ccc(NC(=O)CCCCCC(=O)Nc4ccccc4N)cc3CC(=O)N([C@H](C)CO)C[C@H]2C)cc1 | inactive: 0.96
35 | CC(O)C(N)C(=O)O (stereo unspecified) | inactive: 1.05
36 | O=C(C[C@H]1CC[C@@H](NC(=O)Nc2ccc3c(c2)OCO3)[C@H](CO)O1)NCCCN1CCOCC1 | inactive: 1.01
37 | O=C(O)[C@@H]1C[C@@H](O)CN1 | inactive: 1.02
38 | COc1cccc(S(=O)(=O)Nc2ccc3c(c2)[C@H]2C[C@H](CC(=O)NCc4cccc(F)c4)O[C@H](CO)[C@H]2O3)c1 | inactive: 1.02
39 | Cc1ccc(S(=O)(=O)N(C)C[C@@H]2Oc3ccc(NC(=O)CCCN(C)C)cc3C(=O)N([C@@H](C)CO)C[C@@H]2C)cc1 | inactive: 1.01
40 | C[C@@H]1CN([C@@H](C)CO)C(=O)c2cccc(NC(=O)c3ccc(-c4nccs4)cc3)c2O[C@H]1CN(C)Cc1ccccc1 | inactive: 1.01
41 | C[C@@H]1CCCCO[C@@H](CN(C)C(=O)c2ccncc2)[C@H](C)CN([C@H](C)CO)C(=O)c2cc(NS(C)(=O)=O)ccc2O1 | inactive: 0.984
42 | CCC(CC)C(=O)N[C@@H]1CC(=O)N(C)C1 | inactive: 1.02

Row | Structure (SMILES) | relative growth
43 | C[C@@H]1CN([C@@H](C)CO)C(=O)c2cccc(NS(=O)(=O)c3cccs3)c2O[C@H]1CN(C)Cc1ccc(Oc2ccccc2)cc1 | inactive: 0.997
44 | CS(=O)(=O)N1C[C@H]2COC[C@@]2(C(=O)NCc2ccccn2)C1 | inactive: 1
45 | C[C@H]1CN([C@@H](C)CO)C(=O)c2cc(C#Cc3ccccc3)cnc2O[C@H]1CN(C)S(=O)(=O)c1ccccc1F | inactive: 1.04
46 | CCCC#Cc1ccc2c(c1)O[C@H](CN(C)C(=O)c1cnccn1)[C@@H](C)CN([C@@H](C)CO)S2(=O)=O | inactive: 1.01
47 | COCCOC(=O)N1C(=O)[C@@]2(c3cc(C#CCC(C(=O)OC)C(=O)OC)ccc31)[C@H](C(=O)N1CCc3cc(OC)c(OC)cc3C1)[C@H]1C(=O)O[C@H](c3ccccc3)[C@H](c3ccccc3)N1[C@@H]2c1ccccc1OCCO | inactive: 1.04
48 | COc1ccc(NC(=O)N(C)C[C@@H]2OCCCC[C@@H](C)Oc3ccc(NC(=O)c4ccncc4)cc3C(=O)N([C@H](C)CO)C[C@H]2C)cc1 | inactive: 0.985
49 | O=C(C[C@H]1CC[C@H](NC(=O)Cc2ccccn2)[C@H](CO)O1)NCCc1ccncc1 | inactive: 1.04
50 | C[C@@H]1CCCCO[C@@H](CN(C)Cc2ccc(Cl)c(Cl)c2)[C@H](C)CN([C@@H](C)CO)C(=O)c2cc(NC(=O)Cc3ccccc3)ccc2O1 | inactive: 0.956
51 | CN(C)CC(=O)N[C@@H]1C=C[C@@H](CC(=O)NCCN2CCCCC2)O[C@@H]1CO | inactive: 0.983
52 | COC(=O)CCC(C)C1CCC2C3C(O)CC4CC(O)CCC4(C)C3CC(O)C12C (stereo unspecified) | inactive: 1.03
53 | C[C@H]1CN([C@@H](C)CO)C(=O)Cc2cc(NS(=O)(=O)c3cccs3)ccc2O[C@H]1CN(C)Cc1ccc(Oc2ccccc2)cc1 | inactive: 0.986
54 | C[C@H]1COC(=O)[C@H](Cc2ccc(F)cc2)CCC=CC[C@@H](CC(=O)N[C@H](CO)Cc2ccccc2)C(=O)N1 | inactive: 1.01
55 | O=C(OC1Cc2c(O)cc(O)cc2OC1c1cc(O)c(O)c(O)c1)c1cc(O)c(O)c(O)c1 (stereo unspecified) | inactive: 0.801
56 | C[C@@H]1CCCCO[C@@H](CN(C)Cc2ccncc2)[C@@H](C)CN([C@H](C)CO)C(=O)c2cc(NS(=O)(=O)c3ccc(Cl)cc3)ccc2O1 | inactive: 0.993
57 | Cc1noc(C)c1NC(=O)Nc1ccc2c(c1)C(=O)N([C@@H](C)CO)C[C@@H](C)[C@@H](CN(C)Cc1ccc(C(F)(F)F)cc1)OCCCC[C@@H](C)O2 | inactive: 0.972
58 | CCCN(C)C[C@H]1OCCCC[C@@H](C)Oc2ccc(NC(=O)NC3CCCCC3)cc2C(=O)N([C@@H](C)CO)C[C@H]1C | inactive: 0.983
59 | C[C@H](CO)N1C[C@H](C)[C@H](CN(C)C(=O)Nc2cccc3ccccc23)Oc2ccc(NS(=O)(=O)c3ccc(F)cc3)cc2CC1=O | inactive: 0.995
60 | COc1ccc(S(=O)(=O)Nc2ccc3c(c2)C(=O)N([C@H](C)CO)C[C@@H](C)[C@@H](CN(C)Cc2ccc4c(c2)OCO4)OCCCC[C@H](C)O3)cc1 | inactive: 1.02
61 | C[C@@H]1CN([C@H](C)CO)C(=O)c2cc(C#CC3(O)CCCC3)cnc2O[C@H]1CN(C)S(=O)(=O)c1ccc(F)cc1 | inactive: 0.984
